# In all, about 52,000 compounds went through this assay and about 4,300 (8.3%) were called active. No stated cut-off is given here; in the data, active means survival mostly below about 52% (no sharp cut-off); inactive means mostly above about 56%. The list shows a part of the results.
# Test system: DeltatarO mutant
# Test: growth inhibition of S. aureus wild type versus tarO mutant, primary screen, teichoic acid synthesis inhibitors, RN4220, OD600 (AID 463173)
# Conditions: OD600, 18 h, active compounds read low, screened at 18.75 µg/mL (by protocol)
row,Structure (SMILES),survival
1,COc1cccc(-c2csc(-c3c(N)c(C(=O)c4ccccc4)n4ccccc34)n2)c1,inactive: 70%
2,O=C(CSc1nc2c([nH]c3ccccc32)c(=O)n1-c1ccc(Cl)cc1)N1CCCCCC1,inactive: 76%
3,CCOC(=O)c1ccccc1NC(=O)Cn1c(=O)n(CCCC(=O)NCc2ccc3c(c2)OCO3)c(=O)c2ccccc21,inactive: 67%
4,CC(C)(CO)NC(=O)c1ccc(Cl)c(S(=O)(=O)N2CCCCC2)c1,inactive: 73%
5,CCOc1ccc(Nc2ncnc3c2cnn3-c2ccc(F)cc2)cc1,inactive: 76%
6,CCOC(=O)C(=O)Nc1nnc2n1CCS2,inactive: 76%
7,COc1ccc(NC(=O)Cn2c(=O)n(Cc3ccccc3)c(=O)c3oc4ccccc4c32)cc1Cl,inactive: 85%
8,Cc1nc2c(C(=O)NCc3ccccc3Cl)cnn2c(C)c1Cc1ccccc1,inactive: 79%
9,Cc1nc(N2CCCC2)ncc1C(=O)N1CCN(c2ccc(Cl)cc2)CC1,inactive: 80%
10,CCOc1ccc(NC(=O)Cn2nnc(C(=O)NCCc3ccccc3)c2N)cc1,inactive: 76%
11,COc1cc(NC(=O)N2CCC3(CC2)Nc2ccccc2-n2cccc23)cc(OC)c1OC,inactive: 101%
12,O=C(CSc1nc2c([nH]c3ccccc32)c(=O)n1-c1ccccc1)Nc1ccc(Cl)c(Cl)c1,inactive: 77%
13,CCc1nn(CC(=O)Nc2c(C)cccc2C)c(=O)c2cc3sccc3n12,inactive: 87%
14,CNC(=O)c1c(NC(=O)Cc2coc3ccc(C)cc23)sc2c1CCCC2,inactive: 53%
15,COc1ccc(-c2noc(-c3ccc(NCC4CCCO4)c([N+](=O)[O-])c3)n2)cc1 (stereo not drawn),active: 42%
16,O=C(Nc1ccccc1C(=O)NC1CCCC1)NC1CCCC1,inactive: 70%
17,COc1ccc(CN(Cc2ccco2)C(=O)c2cc3ccccc3oc2=O)c(OC)c1,active: 40%
18,O=C(CSc1nnc(-c2ccccc2F)o1)Nc1ccccc1Cl,inactive: 113%
19,COc1ccc(CCNC(=O)Cn2cc(S(=O)(=O)Cc3ccccc3Cl)c3ccccc32)cc1OC,inactive: 80%
20,O=C(CSc1nnc(-c2ccc(S(=O)(=O)N3CCOCC3)cc2)o1)c1c[nH]c2ccccc12,inactive: 95%

row,Structure (SMILES),survival
1,Cc1ccccc1C(=O)N1CCC(C(=O)NC2CCCCCC2)CC1,inactive: 71%
2,Brc1ccc2ncnc(NCCCN3CCOCC3)c2c1,inactive: 91%
3,CCOC(=O)c1ccc(NC(=O)c2cn(-c3ccccc3)nc2-c2ccc(OC)c(OC)c2)cc1,inactive: 129%
4,O=C(Nc1cccc(-c2nc3cccnc3s2)c1)c1cccc(Br)c1,active: 32%
5,N#Cc1ccccc1NC(=O)C(=O)NCCc1csc(-c2ccc(F)cc2)n1,inactive: 83%
6,Cc1ccc(S(=O)(=O)c2nc(-c3cccs3)oc2SC(C)C)cc1,inactive: 66%
7,CCNC(=O)CC1C(=O)N(c2ccc(C)cc2)C(=O)N1CCC(C)C (stereo not drawn),inactive: 91%
8,O=C(Cn1c(=O)oc2cc(S(=O)(=O)N3CCCC3)ccc21)Nc1ccc(F)cc1F,inactive: 77%
9,COc1ccc2c(Sc3ccc(Cl)cc3)c(C(=O)N3CCC(C)CC3)[nH]c2c1,inactive: 64%
10,COc1ccccc1NC(=O)C1=C(C)Nc2sc(C#N)c(N)c2C1c1ccco1 (stereo not drawn),inactive: 76%
11,COc1ccccc1NC(=O)CSc1oc(-c2ccccc2)nc1S(=O)(=O)c1ccc(C)cc1,inactive: 158%
12,CN(C)c1ccc(C2NCCS2)cc1 (stereo not drawn),inactive: 70%
13,CCOC(=O)c1cnc2c(-c3ccccc3)c(C(F)(F)F)nn2c1C,inactive: 88%
14,O=C(CSc1c2c(nc3cc(Cl)ccc13)CCCC2)N1CCN(c2ccccc2F)CC1,inactive: 50%
15,CCOC(=O)c1noc2ncn(CC(=O)Nc3cccc(Cl)c3)c(=O)c12,inactive: 77%
16,O=C(COc1ccc2ccccc2c1)NC1CC(=O)N(c2ccccc2)C1 (stereo not drawn),inactive: 88%
17,Cc1ccc2nc(-c3cccnc3)c(Nc3ccc(C(C)C)cc3)n2c1,inactive: 94%
18,Cc1nc(-c2ccc(S(=O)(=O)N3CCN(c4cc(Cl)ccc4C)CC3)cc2)co1,inactive: 90%
19,O=C(NCCc1ccc(Cl)cc1)C1COc2ccccc2C1 (stereo not drawn),inactive: 69%
20,Cc1cn2c(=O)c(S(=O)(=O)N3CCN(c4cc(Cl)ccc4C)CC3)c(C)nc2s1,inactive: 94%

row,Structure (SMILES),survival
1,CC1CCN(C(=O)c2cccc(Cl)c2)CC1,inactive: 93%
2,CSCCC(NS(=O)(=O)c1ccc2c(c1)oc(=O)n2C)C(=O)N1CCN(c2ccc(C(C)=O)cc2)CC1 (stereo not drawn),inactive: 84%
3,COc1cccc(C(=O)NCC(=O)OCc2cc(=O)n3ccsc3n2)c1,inactive: 104%
4,CCc1ccccc1NC(=O)c1ccc(=O)n(Cc2ccc(F)cc2)c1,inactive: 67%
5,CCc1ccc(-n2c(=O)c3cccnc3n2CC(=O)Nc2cc(OC)ccc2OC)cc1,inactive: 95%
6,Cc1ccc(C(=O)Nc2nc(-c3nnn(-c4cccc(C(F)(F)F)c4)c3C)ns2)cc1,inactive: 60%
7,COc1cc(OC)cc(C(=O)Nc2nnc3n2CCS3)c1,inactive: 73%
8,CCOC(=O)c1c(C)oc2nc(C)nc(NCc3cccc(Cl)c3)c12,inactive: 87%
9,CCCCOc1cccc(NC(=O)c2cccc(C(=O)Nc3cccc(OCCCC)c3)c2)c1,inactive: 75%
10,CCOC(=O)c1nc(Nc2ccc(C(=O)OC)cc2)c2ccccc2n1,inactive: 57%
11,CC(=O)C1=C(c2ccc(Br)cc2)N(C(C)=O)n2c(nnc2C2CCCCC2)S1,inactive: 88%
12,CCn1ccc2cc(S(=O)(=O)N3CCC(C(=O)NCCc4ccccc4)CC3)ccc21,inactive: 102%
13,COc1cc(OC)c(NC(=O)c2c(C)oc3nc(C)nc(N4CCOCC4)c23)cc1Cl,inactive: 92%
14,CCOC(=O)C1=C(O)CSC1=NC(=O)c1ccc(OC)cc1,inactive: 99%
15,COc1cccc(-n2cc(C(=O)OCc3ccc(Cl)cc3)c3ccccc3c2=O)c1,inactive: 85%
16,Cc1cccc(CNC(=O)c2ccc(C)c(-n3c(C)nc4cccnc43)c2)c1,inactive: 67%
17,CCOc1ccc(-n2c(=O)c3c(C)c(C)sc3n(CC(=O)N3CCC(C)CC3)c2=O)cc1,inactive: 71%
18,CC(C)CC(=O)Nc1nnc(SCc2cc(=O)n3ccccc3n2)s1,inactive: 71%

# Source: PubChem BioAssay AID463173 (ICCB-Longwood Screening Facility, Harvard Medical School, 2010)
